PMC9300702
No constants are given. Whether binding was seen depends on the method and setting. For some assays here: Binding seen in cells or lysates may run through a third protein. Some results given as binding are weak or reduced against the parent protein; the word gives no strength. For some assays here: Tags and fused reporters may be left off the sequences shown.

The chains behind the UniProt entries cited, without tags or fusion partners. Where a name states a change or a piece, a line headed by the entry shows the natural chain unless it says otherwise. A line that says so, or that is headed by a name, gives the form on record, which may keep a tag or linker. Residues count along the entry.
UniProt O14786: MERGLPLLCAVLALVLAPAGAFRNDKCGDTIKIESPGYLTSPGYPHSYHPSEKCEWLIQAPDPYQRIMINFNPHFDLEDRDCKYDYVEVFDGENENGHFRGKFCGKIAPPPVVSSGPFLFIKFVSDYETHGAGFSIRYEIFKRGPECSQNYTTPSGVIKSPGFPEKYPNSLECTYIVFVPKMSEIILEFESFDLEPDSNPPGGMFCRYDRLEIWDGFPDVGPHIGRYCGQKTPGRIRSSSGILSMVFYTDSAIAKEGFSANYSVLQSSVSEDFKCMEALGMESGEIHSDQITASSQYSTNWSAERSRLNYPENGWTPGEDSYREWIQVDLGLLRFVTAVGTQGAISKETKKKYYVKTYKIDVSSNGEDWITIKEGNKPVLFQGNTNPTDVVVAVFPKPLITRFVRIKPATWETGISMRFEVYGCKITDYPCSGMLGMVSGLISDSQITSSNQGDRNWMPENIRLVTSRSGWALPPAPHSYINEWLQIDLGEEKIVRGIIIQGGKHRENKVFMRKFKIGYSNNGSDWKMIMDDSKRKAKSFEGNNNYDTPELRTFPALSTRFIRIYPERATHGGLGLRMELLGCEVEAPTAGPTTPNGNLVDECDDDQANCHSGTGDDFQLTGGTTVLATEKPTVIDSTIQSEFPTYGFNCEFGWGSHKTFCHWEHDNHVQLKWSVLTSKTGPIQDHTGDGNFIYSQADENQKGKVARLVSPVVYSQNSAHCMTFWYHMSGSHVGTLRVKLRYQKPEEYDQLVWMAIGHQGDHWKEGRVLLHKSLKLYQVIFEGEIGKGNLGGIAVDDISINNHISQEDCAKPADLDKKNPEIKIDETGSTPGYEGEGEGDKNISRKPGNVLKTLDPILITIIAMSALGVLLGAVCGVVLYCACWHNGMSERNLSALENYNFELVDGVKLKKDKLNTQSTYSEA
Neuropilin 1 (endogenous) (human (endogenous in primary umbilical artery ECs)): residues 22-923 of O14786
recombinant Fc-tagged whole extracellular portion of human NRP1: residues 22-856 of O14786

Key:
[1] = biological target: Neuropilin 1 (endogenous) (human (endogenous in primary umbilical artery ECs)) (UniProt O14786); test: co-IP; unstimulated ECs incubated live with mouse mAb to the extracellular domain of NRP1 (R&D MAB3870) or control IgGs for 10 min at 37 °C, lysed (1% NP-40, 150 mM NaCl), protein A/G-Sepharose, western blot; all proteins endogenous
[2] = biological target: recombinant Fc-tagged whole extracellular portion of human NRP1 (human) (UniProt O14786); test: pull-down; 2 µg NRP1-Fc held on agarose-conjugated anti-NRP1 antibody (1 µg) with 2 µg VE-cadherin-Fc or IgG1-Fc alone, 2 h at 4 °C, 25 mM Tris-HCl pH 7.4, 100 mM NaCl, 5 mM CaCl2; western blot; both purified
[3] = biological target: recombinant Fc-tagged whole extracellular portion of human NRP1 (human) (UniProt O14786); test: pull-down; 0.1 µg NRP1-Fc or IgG1-Fc on protein G Dynabeads, incubated with 0.5 µg tag-free FL-, mini- or T2-WARS 2 h at 4 °C; washes in 50 mM Tris-HCl, 150 mM NaCl, 1% Triton X-100, 5 mM CaCl2; western blot; both purified
[4] = biological target: Neuropilin 1 (endogenous) (human (endogenous in primary umbilical artery ECs)) (UniProt O14786); test: co-IP; lysates of unstimulated ECs immunoprecipitated with anti-NRP1 Ab or control non-immune IgGs, western blot with anti-WARS Ab; all proteins endogenous

B1: VE-cadherin (receptor, UniProt P33151 48-784)
chain: DWIWNQMHIDEEKNTSLPHHVGKIKSSVSRKNAKYLLKGEYVGKVFRVDAETGDVFAIERLDRENISEYHLTAVIVDKDTGENLETPSSFTIKVHDVNDNWPVFTHRLFNASVPESSAVGTSVISVTAVDADDPTVGDHASVMYQILKGKEYFAIDNSGRIITITKSLDREKQARYEIVVEARDAQGLRGDSGTATVLVTLQDINDNFPFFTQTKYTFVVPEDTRVGTSVGSLFVEDPDEPQNRMTKYSILRGDYQDAFTIETNPAHNEGIIKPMKPLDYEYIQQYSFIVEATDPTIDLRYMSPPAGNRAQVIINITDVDEPPIFQQPFYHFQLKENQKKPLIGTVLAMDPDAARHSIGYSIRRTSDKGQFFRVTKKGDIYNEKELDREVYPWYNLTVEAKELDSTGTPTGKESIVQVHIEVLDENDNAPEFAKPYQPKVCENAVHGQLVLQISAIDKDITPRNVKFKFILNTENNFTLTDNHDNTANITVKYGQFDREHTKVHFLPVVISDNGMPSRTGTSTLTVAVCKCNEQGEFTFCEDMAAQVGVSIQAVVAILLCILTITVITLLIFLRRRLRKQARAHGKSVPEIHEQLVTYDEEGGGEMDTTSYDVSVLNSVRRGGAKPPRPALDARPSLYAQVQKPPRHAPGAHGGPGEMAAMIEVKKDEADHDGDGPPYDTLHIYGYEGSESIAESLSSLGTDSSDSDVDYDFLNDWGPRFKMLAELYGSDPREELLY
[1]
  binding: binds

B2: recombinant Fc-tagged whole extracellular portion of human VE-Cadherin (Fc fusion, UniProt P33151 48-599)
chain: DWIWNQMHIDEEKNTSLPHHVGKIKSSVSRKNAKYLLKGEYVGKVFRVDAETGDVFAIERLDRENISEYHLTAVIVDKDTGENLETPSSFTIKVHDVNDNWPVFTHRLFNASVPESSAVGTSVISVTAVDADDPTVGDHASVMYQILKGKEYFAIDNSGRIITITKSLDREKQARYEIVVEARDAQGLRGDSGTATVLVTLQDINDNFPFFTQTKYTFVVPEDTRVGTSVGSLFVEDPDEPQNRMTKYSILRGDYQDAFTIETNPAHNEGIIKPMKPLDYEYIQQYSFIVEATDPTIDLRYMSPPAGNRAQVIINITDVDEPPIFQQPFYHFQLKENQKKPLIGTVLAMDPDAARHSIGYSIRRTSDKGQFFRVTKKGDIYNEKELDREVYPWYNLTVEAKELDSTGTPTGKESIVQVHIEVLDENDNAPEFAKPYQPKVCENAVHGQLVLQISAIDKDITPRNVKFKFILNTENNFTLTDNHDNTANITVKYGQFDREHTKVHFLPVVISDNGMPSRTGTSTLTVAVCKCNEQGEFTFCEDMAAQVGVSIQ
[2]
  binding: binds

B3: recombinant purified tag-free human FL-WARS (enzyme, UniProt P23381 1-471)
chain: MPNSEPASLLELFNSIATQGELVRSLKAGNASKDEIDSAVKMLVSLKMSYKAAAGEDYKADCPPGNPAPTSNHGPDATEAEEDFVDPWTVQTSSAKGIDYDKLIVRFGSSKIDKELINRIERATGQRPHHFLRRGIFFSHRDMNQVLDAYENKKPFYLYTGRGPSSEAMHVGHLIPFIFTKWLQDVFNVPLVIQMTDDEKYLWKDLTLDQAYSYAVENAKDIIACGFDINKTFIFSDLDYMGMSSGFYKNVVKIQKHVTFNQVKGIFGFTDSDCIGKISFPAIQAAPSFSNSFPQIFRDRTDIQCLIPCAIDQDPYFRMTRDVAPRIGYPKPALLHSTFFPALQGAQTKMSASDPNSSIFLTDTAKQIKTKVNKHAFSGGRDTIEEHRQFGGNCDVDVSFMYLTFFLEDDDKLEQIRKDYTSGAMLTGELKKALIEVLQPLIAEHQARRKEVTDEIVKEFMTPRKLSFDFQ
[3]
  binding: binds weakly

B4: full length tryptophanyl-tRNA synthetase (endogenous) (enzyme, UniProt P23381 1-471)
chain: B3 chain
[4]
  binding: no binding

B5: T2-WARS (endogenous) (domain or fragment, UniProt P23381 94-471)
chain: SAKGIDYDKLIVRFGSSKIDKELINRIERATGQRPHHFLRRGIFFSHRDMNQVLDAYENKKPFYLYTGRGPSSEAMHVGHLIPFIFTKWLQDVFNVPLVIQMTDDEKYLWKDLTLDQAYSYAVENAKDIIACGFDINKTFIFSDLDYMGMSSGFYKNVVKIQKHVTFNQVKGIFGFTDSDCIGKISFPAIQAAPSFSNSFPQIFRDRTDIQCLIPCAIDQDPYFRMTRDVAPRIGYPKPALLHSTFFPALQGAQTKMSASDPNSSIFLTDTAKQIKTKVNKHAFSGGRDTIEEHRQFGGNCDVDVSFMYLTFFLEDDDKLEQIRKDYTSGAMLTGELKKALIEVLQPLIAEHQARRKEVTDEIVKEFMTPRKLSFDFQ
[4]
  binding: no binding
